Reference: PubChem BioAssay AID290 (DTP/NCI, 2004)
Results filed as inconclusive are left out. Some entries of the source have several records that differ or are many. Only these are listed. There may be further records. Values given together repeat one measurement in other runs, samples, wells, individuals or studies. *1 amine or outer side, *2 acyl side, *3 side chain or, on linkers, in order; H or OH if unused. Where a SMILES comes first, the peptide text is derived from it. Bridges are numbered along the chain shown (N, C = ends). Roman numbers before positions name the chains, in order. [ ]: non-standard residue; d: D form. Actinocin(9to1) = Cc1c2oc3c(C)ccc(C(=O)[*:1])c3nc-2c(C(=O)[*:2])c(N)c1=O; aThr = C[C@H](O)[C@H](N)C(=O)O; NMeV = CN[C@H](C(=O)O)C(C)C; Sar = CNCC(=O)O

Test system: mice, P1798 lymphosarcoma sc, survival or tumor weight T/C
Experiment: NCI In Vivo Anticancer Drug Screen. Data for tumor model P1798 Lymphosarcoma (subcutaneous) in unknown mice
Conditions: endpoint: mean tumor weight, higher = larger tumour
Protocol: The antitumor activity of compounds was measured in mice bearing transplantable tumors. Survival or tumor size were measured and the results are expressed as the measurement made in the treated group (T) divided by the measurement made in the vehicle treated control group (C). The tumor model used in this assay is P1798 Lymphosarcoma (subcutaneous) in unknown mice

In the case of O=P1(N(CCCl)CCCl)NCCCO1 (stereo unspecified), the T/C (dose: 6.25 mg/kg/injection, schedule: Q01DX010 (ip), vehicle: saline) is reported as 84 % of control and 112 % of control.
CC[C@]1(O)C[C@H]2CN(CCc3c([nH]c4ccccc34)[C@@](C(=O)OC)(c3cc4c(cc3OC)N(C=O)[C@H]3[C@@](O)(C(=O)OC)[C@H](OC(C)=O)[C@]5(CC)C=CCN6CC[C@]43[C@@H]65)C2)C1 was tested, and the T/C (dose: 62.0 micrograms/kg/injection, schedule: Q01DX010 (ip), vehicle: water) was 44 % of control and 92 % of control.
For Nc1nc2n[nH]nc2c(=O)[nH]1, the T/C (dose: 25.0 mg/kg/injection, schedule: Q01DX010 (ip), vehicle: other) was 75 % of control and 164 % of control and the T/C (dose: 100.0 mg/kg/injection, schedule: Q01DX010 (ip), vehicle: other) was 19 % of control, 72 % of control, 86 % of control.
For Cc1c2oc3c(C)ccc(C(=O)N[C@@H]4C(=O)N[C@H](C(C)C)C(=O)N5CCC[C@H]5C(=O)N(C)CC(=O)N(C)[C@@H](C(C)C)C(=O)O[C@H]4C)c3nc-2c(C(=O)N[C@@H]2C(=O)N[C@H](C(C)C)C(=O)N3CCC[C@H]3C(=O)N(C)CC(=O)N(C)[C@@H](C(C)C)C(=O)O[C@H]2C)c(N)c1=O (I: [aThr][dV]P[Sar][NMeV] / II: [aThr][dV]P[Sar][NMeV]; ester I:1-I:C, II:1-II:C; linker I:N-II:N via Actinocin(9to1)), the T/C (dose: 10.0 micrograms/kg/injection, schedule: Q01DX010 (ip), vehicle: saline) was 44 % of control and 123 % of control.
With O=C(Nc1ccc(C2=NCCN2)cc1)c1ccc(C(=O)Nc2ccc(C3=NCCN3)cc2)c(Cl)c1 the T/C (dose: 3.5 mg/kg/injection, schedule: Q01DX011 (ip), vehicle: carboxymethylcellulose (CMC)) was 55 % of control, 71 % of control, 108 % of control and the T/C (dose: 7.0 mg/kg/injection, schedule: Q01DX011 (ip), vehicle: carboxymethylcellulose (CMC)) was 53 % of control, 63 % of control, 82 % of control.
O=c1[nH]cc(F)c(=O)[nH]1 was tested, and the T/C (dose: 10.0 mg/kg/injection, schedule: Q01DX010 (ip), vehicle: saline) was 52 % of control and 95 % of control.
C[C@]12CCC(=O)C=C1CC[C@@H]1[C@@H]2C(=O)C[C@@]2(C)[C@H]1CC[C@]2(O)C(=O)CO was tested, and the T/C (dose: 25.0 mg/kg/injection, schedule: Q01DX010 (sc), vehicle: steriod suspending solution) was 42 % of control and 78 % of control and the T/C (dose: 50.0 mg/kg/injection, schedule: Q01DX010 (sc), vehicle: steriod suspending solution) was 11 % of control and 69 % of control.
For CCOC(N)=O, the T/C (dose: 500.0 mg/kg/injection, schedule: Q01DX010 (ip), vehicle: saline) was 48 % of control and 74 % of control.
In the case of C[C@]12C=CC(=O)C=C1CC[C@@H]1[C@@H]2C(=O)C[C@@]2(C)[C@H]1CC[C@]2(O)C(=O)CO, the T/C (dose: 40.0 mg/kg/injection, schedule: Q01DX010 (sc), vehicle: steriod suspending solution) is reported as 21 % of control and 49 % of control.
Oc1cc(CN(CCCl)CCCl)c(O)cc1CN(CCCl)CCCl was tested, and the T/C (dose: 1.88 mg/kg/injection, schedule: Q01DX010 (sc), vehicle: steriod suspending solution) was 82 % of control and 124 % of control, the T/C (dose: 3.75 mg/kg/injection, schedule: Q01DX010 (sc), vehicle: steriod suspending solution) was 50 % of control and 83 % of control and the T/C (dose: 7.5 mg/kg/injection, schedule: Q01DX010 (sc), vehicle: steriod suspending solution) was 14 % of control and 48 % of control.
For S=c1nc[nH]c2nc[nH]c12, the T/C (dose: 18.3 mg/kg/injection, schedule: Q01DX010 (ip), vehicle: other) was 35 % of control, 61 % of control, 87 % of control.
